Screen size: about 410,000 compounds; about 6,400 (1.6%) were called active. Inconclusive results, whose numbers are uncertain, are shown with a selection of clear calls. Calls come from the whole dose curve; as a rule, active = well fitted inhibition curve with a large enough effect; inconclusive = small, poorly fitted or top-dose-only effect; inactive = no such curve, though single readings can be large or run the other way. Potencies of inconclusive entries are left out as doubtful fits.
Each compound was assayed against Glucagon-like peptide 1 receptor (Homo sapiens) (UniProt P43220) (assay: qHTS of GLP-1 Receptor Inverse Agonists (Inhibition Mode)). Conditions: HEK293 GLP-1R CRE-luciferase, luminescence, 24 h; Potency: GLP-1R form is constitutively active unless noted; activity change, negative = inhibition: at 38.3 µM (top of the series) unless noted.
Outline: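 qHTS in 1536-well format: reporter HEK293 cells expressing constitutive GLP-1R activity in DMEM + 10% Nu serum, 24 hr with compounds at 37 deg C, luminescence read after 12 min with detection reagent.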
% is set by controls: 0 for no effect and ±100 for the full control effect; potency is the fitted concentration of half-maximal effect; tags give direction and shape of the fitted curve.
Note: nearly all actives have a fitted effect of over 55% in size.

UniProt P43220, sequence (P43220 whole entry, looked up): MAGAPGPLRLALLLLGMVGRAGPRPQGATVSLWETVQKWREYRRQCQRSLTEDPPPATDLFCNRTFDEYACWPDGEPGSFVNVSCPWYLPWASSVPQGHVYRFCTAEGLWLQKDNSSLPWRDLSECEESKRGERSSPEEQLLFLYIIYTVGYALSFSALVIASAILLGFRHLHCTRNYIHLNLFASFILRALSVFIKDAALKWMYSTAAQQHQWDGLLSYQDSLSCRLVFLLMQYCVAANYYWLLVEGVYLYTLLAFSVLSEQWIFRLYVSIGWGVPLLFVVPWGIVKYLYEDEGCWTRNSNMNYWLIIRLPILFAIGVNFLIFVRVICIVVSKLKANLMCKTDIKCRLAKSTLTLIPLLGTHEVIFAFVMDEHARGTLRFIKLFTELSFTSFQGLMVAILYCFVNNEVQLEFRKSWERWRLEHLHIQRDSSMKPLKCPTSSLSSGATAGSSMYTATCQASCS

SMILES	Potency	activity change, negative = inhibition
C1=C(c2c[nH]c3ccccc23)CCN(Cc2ccccc2)C1	inconclusive [inhibitor, partial curve, poor fit]	
O=C(CCN1CC2CCC(CC2)C1)c1cccs1		inactive: 12%
CCCCCc1nc2ccccc2c(=O)n1-c1ccccc1[N+](=O)[O-]	inconclusive [inhibitor, partial curve, poor fit]	
COC(=O)C1=C(c2ccc(F)cc2OCc2ccccc2)C[C@@H]2CC[C@H]1N2C(=O)N1CCCC1	inconclusive [inhibitor, single point]	
COC(=O)C1=C(c2ccc(OC(F)(F)F)cc2)C[C@@H]2CC[C@H]1N2C(=O)NCC1CC1	active: 10 µM	
O=C(CN1CCN(C(=O)COc2cccc(F)c2)CC1)Nc1ccc(Cl)c(C(F)(F)F)c1	inconclusive [inhibitor, partial curve, poor fit]	
O=C1CN=C(c2cccs2)c2c(sc3c2CCCC3)N1		inactive: 0%
Cc1cccc(N2C(=O)NC(=O)/C(=C\C=C\c3ccco3)C2=O)c1	inconclusive [inhibitor, single point]	
O=C(NN=Cc1ccc(N(CCCl)CCCl)cc1)c1cc(=O)[nH]c(=O)[nH]1	inconclusive [inhibitor, full curve]	
COc1ccc([C@H]2C[C@@H](O)[C@H](n3cc(COC(=O)c4ccccc4)nn3)CN2Cc2cccs2)cc1	inconclusive [inhibitor, single point]	
CCOc1cc(CNCCc2c[nH]c3ccccc23)cc(Cl)c1OC	active: 11.2 µM [setting not given]	
O=C(Oc1c(Cl)cc(Cl)c2ccccc12)N1CCCCC1	inconclusive [inhibitor, partial curve, poor fit]	
CCOP(=O)(OCC)/C(C#N)=C/c1ccc(Br)cc1	inconclusive [inhibitor, single point]	
CCOC(=O)[C@]12Cc3ccccc3[C@H]1N(CCC(=O)OC)C(=O)c1cc(OC)ccc12	inconclusive [inhibitor, single point]	
CC(C)NC(C)Cc1ccc(I)cc1 (stereo not drawn)		inactive: 20.6%
CC(C)C[C@@H]1COc2cc(N3CCN(C)CC3)ccc2S(=O)(=O)N1	inconclusive [inhibitor, partial curve, poor fit]	
CN(C)S(=O)(=O)c1cc(NC(=O)COC(=O)Cc2ccccc2)ccc1Cl		inactive: 9.84%
COc1ccc(CCNCc2cccc(C(F)(F)F)c2)cc1OC	inconclusive [inhibitor, single point]	
Cc1cccc([N+](=O)[O-])c1		inactive: 3.63%
CCCCN1C(=O)NC(=O)C2(Cc3c(nc4ccccn4c3=O)N3CCc4ccccc4C32)C1=O (stereo not drawn)	inconclusive [inhibitor, single point]	
O=c1c2ccccc2[se]n1-c1ccccc1	inconclusive [inhibitor, single point]	

SMILES	Potency	activity change, negative = inhibition
C[n+]1c(-c2ccccc2)c2cc(N)ccc2c2ccc(N)cc21	active: 1.78 µM [setting not given]	
Fc1ccc(Cn2nnnc2C(c2ccc(Cl)cc2)N2CC=C(c3ccc(F)cc3)CC2)cc1 (stereo not drawn)	inconclusive [inhibitor, full curve, poor fit]	
COC(=O)C1=C(c2ccc(-c3ccccc3)c(F)c2)C[C@@H]2CC[C@H]1N2C(=O)NC1CCCCC1	inconclusive [inhibitor, partial curve, poor fit]	
C[C@]12CC[C@H]3[C@@H](CCC4=CC(=O)CC[C@@]43C)[C@@H]1CC[C@@H]2O	inactive	
O=C(NCC1=C(c2ccc3ccccc3c2)C[C@@H]2CC[C@H]1N2Cc1ccco1)c1nccs1	inconclusive [inhibitor, single point]	
O=c1[nH]c(=O)n(C2CCCCCC2)c(O)c1C=NCC1CCCO1 (stereo not drawn)		inactive: -7.7%
COc1ccc(-n2nnnc2C(c2cccs2)N2CCC(n3c(=O)[nH]c4ccccc43)CC2)cc1 (stereo not drawn)	inconclusive [inhibitor, partial curve, poor fit]	
Clc1ccc(OCCCN2CCCC2)cc1Cl	inconclusive [inhibitor, partial curve, poor fit]	
CCOC(=O)c1c(C)n(C(C)C)c2ccc(OC)cc12	inconclusive [inhibitor, single point]	
O=C(NCCc1ccccc1)[C@@H]1CC=C[C@@H]2CCN(Cc3ccc(Cl)c(Cl)c3)C(=O)[C@@H]21	inconclusive [inhibitor, single point]	
CN(C(=O)Oc1ccc(C(C)(C)C)cc1)c1ccccc1	inconclusive [inhibitor, single point]	
NCCc1c(Cc2ccccc2)[nH]c2ccccc12	inconclusive [inhibitor, single point]	
O=C(CN1CCCC1)Nc1ccc(NC(=O)Nc2ccccc2)cc1	inconclusive [inhibitor, full curve, poor fit]	
CN(CC(=O)Nc1cccc(F)c1)CC(=O)Nc1cccc(S(=O)(=O)N(C)c2ccccc2)c1	inconclusive [inhibitor, partial curve, poor fit]	
CCN1CCN(C(=O)COc2ccc(S(=O)(=O)Nc3ccc(Cl)cc3)cc2)CC1	inconclusive [inhibitor, partial curve]	
COc1ccc(-n2c(-c3ccccc3F)nc3ccccc3c2=O)cc1	inconclusive [inhibitor, single point]	
COC(=O)C1=C(c2ccccc2OCc2ccccc2)C[C@@H]2CC[C@H]1N2C(=O)NCCOc1ccc(OC)cc1	inconclusive [inhibitor, partial curve, poor fit]	
CSc1ccc(CN2CCN(c3ccccc3C)CC2)cc1	inconclusive [inhibitor, single point]	
CCOP(=O)(OCC)c1cccc(P(=O)(c2ccccc2)c2ccccc2)c1O	inconclusive [inhibitor, single point]	
COc1cc(NC(=O)c2cccc3c(-c4cccnc4)coc23)cc(OC)c1OC	inconclusive [inhibitor, single point]	
Cc1cccc(C)c1-n1nnnc1C(C1CC1)N1CCC2(CC1)C(=O)NCN2c1ccccc1 (stereo not drawn)	inconclusive [inhibitor, single point]	

SMILES	Potency	activity change, negative = inhibition
CC1CC(C)(O)CC(C(O)CC2CC(=O)NC(=O)C2)C1=O (stereo not drawn)	inconclusive [inhibitor, full curve, poor fit]	
CC(=O)c1c(C)n(C2CCCCC2)c2ccc(O)cc12	inconclusive [inhibitor, full curve, poor fit]	
COC(=O)C1=C(c2ccc(OCc3ccccc3)cc2)C[C@@H]2CC[C@H]1N2C(=O)NCc1ccc(N(C)C)cc1	inconclusive [inhibitor, full curve, poor fit]	
OC(CNCc1ccccc1)c1ccc(Cl)cc1 (stereo not drawn)	inconclusive [inhibitor, partial curve, poor fit]	
COc1cccc(C(=O)C2CCCN(Cc3ccc4nonc4c3)C2)c1 (stereo not drawn)	inconclusive [inhibitor, single point]	
CCCn1c(C(=O)c2ccccc2OC)nc2ccccc21	inconclusive [inhibitor, single point]	
COc1ccccc1N1CCN(C(=O)c2cc3c(-c4ccccc4F)nn(C)c3s2)CC1	inconclusive [inhibitor, single point]	
COc1cc(NS(=O)(=O)c2ccc3c(c2)oc(=O)n3C)cc(OC)c1OC	inconclusive [inhibitor, partial curve, poor fit]	
Cc1ccc(-c2nc3ccccc3c(=O)n2-c2cccc(O)c2)cc1	active: 1.78 µM [setting not given]	
COC(=O)C1=C(c2ccc(F)cc2OCc2ccccc2)C[C@@H]2CC[C@H]1N2C(=O)N1CCC(C)CC1	inconclusive [inhibitor, single point]	
c1ccc2c(c1)CSc1ccccc1C2C1=NCCN1 (stereo not drawn)	inconclusive [inhibitor, single point]	
Oc1c(Br)c(Br)c(Br)c(Br)c1Br		inactive: -22.8%
COc1cccc(O)c1CN1CCCC(C(=O)c2sccc2C)C1 (stereo not drawn)	inconclusive [inhibitor, partial curve, poor fit]	
CCOC(=O)[C@]12Cc3ccsc3[C@H]1N(Cc1ccccc1)C(=O)c1ccccc12	inconclusive [inhibitor, partial curve, poor fit]	
FC(F)(F)Oc1ccc(C2NCc3ccccc3-n3cccc32)cc1 (stereo not drawn)	inconclusive [inhibitor, single point]	
Cc1ccc(N2C(=O)NC(=O)/C(=C\C=C\c3ccco3)C2=O)cc1	inconclusive [inhibitor, single point]	
O=C1CC(=O)N(c2cccc(C(F)(F)F)c2)C(=O)N1		inactive: 3.7%
CCCCn1c(=O)c(C(=O)Nc2ccccc2N)c(O)c2ccccc21		inactive: 4.49%
CCOC(=O)c1ccccc1NC(=O)c1c(O)[nH]c(=O)[nH]c1=O		inactive: 9.39%
CCCOc1ccc(Cc2c(Cl)nc(SC)nc2OC)cc1	inconclusive [inhibitor, single point]	
CCN(c1ccc(C(O)(C(=O)OC)C(F)(F)F)cc1)S(=O)(=O)c1ccccc1 (stereo not drawn)	inconclusive [inhibitor, single point]	

From PubChem BioAssay AID624417 (National Center for Advancing Translational Sciences (NCATS), 2012)
